From ChEMBL document CHEMBL4888484, “Replenishing the malaria drug discovery pipeline: Screening and hit evaluation of the MMV Hit Generation Library 1 (HGL1) against asexual blood stage Plasmodium falciparum ,using a nano luciferase reporter read-out” (2022)
About 540 (0.36%) of roughly 150,000 compounds showed an effect of 50% or more. The list shows a part of the results.

These compounds were tested on Plasmodium falciparum (assay: Primary screen in NF54 nanoGlo assay, in single point, at 2uM, 72h; a lower Z score goes with more inhibition). Details: timepoint 72 hour.
Assay type: functional, Erythrocyte
For `Cc1ccc(OC2(C(=O)O)CCN(c3nccs3)CC2)cc1`, the “% Inhibition” value was -11% and the Z score was 2.08. With `CCC1(C(=O)Nc2ccc3cc(Cl)cnc3n2)CCOCC1` the “% Inhibition” value was -17% and the Z score was 1.96. For `Cn1cnc(-c2ccccc2)c1NC(=O)c1ccnn1C1CCC1`, the “% Inhibition” value was -9% and the Z score was 0.96. With `Brc1ccc([C@@H]2COCCN2)cc1` the “% Inhibition” value was 11% and the Z score was -1.61. `Cc1nc[nH]c1CN(Cc1c(C)nn(C)c1C)C(C)C` was tested, and the “% Inhibition” value was -7% and the Z score was 0.99. `O=C(NCCc1ccccc1)C1Cc2cc(C(F)(F)F)ccc2N2CCN(Cc3ccc(F)cc3)CC12` (stereo not drawn) was tested, and the “% Inhibition” value was 1% and the Z score was -0.21. `CCCNC(=O)CCCN1CCN(C(=O)c2cscn2)[C@@H](C)C1` was tested, and the “% Inhibition” value was 5% and the Z score was -0.86. `CCCN(c1ncnc(CC)c1F)C1CC1` was tested, and the “% Inhibition” value was -14% and the Z score was 1.28. For `COc1ccc(CC(C(=O)OC2CC(C)N(C)C(C)C2)c2ccccc2)cc1` (stereo not drawn), the “% Inhibition” value was -2% and the Z score was 0.35. `Cc1ccc(CN[C@H]2CCOC3(CC(C(=O)O)C3)C2)c(C)c1` (stereo partly drawn) was tested, and the “% Inhibition” value was 1% and the Z score was -0.21. In the case of `COc1ccccc1CC(=O)Nc1cc(N2CCCC2=O)ccc1Cl`, the “% Inhibition” value is reported as -12% and the Z score is reported as 1.51. In the case of `OC[C@@H]1COCCN(Cc2ccc3ccn(Cc4ccccc4)c3c2)C1`, the “% Inhibition” value is reported as -7% and the Z score is reported as 1.06. In the case of `O=S(=O)(c1ccc(Cl)cc1)N1CCC2(CC1)NCCN=C2NCc1ccc2c(c1)OCO2`, the “% Inhibition” value is reported as -17% and the Z score is reported as 2.19. In the case of `COCCN1C(C)CN(C(=O)CN(C)C2CC2)CC1C` (stereo not drawn), the “% Inhibition” value is reported as -6% and the Z score is reported as 0.81. With `COc1ccc(CC2(C(=O)O)CCN(Cc3cccnc3)CC2)cc1` the “% Inhibition” value was 13% and the Z score was -1.82. `CCn1cc2c(n1)c(=O)n(Cc1ccc(C)cc1)c(=O)n2CC(=O)Nc1ccc(C)c(C)c1` was tested, and the “% Inhibition” value was -2% and the Z score was 0.24. For `CC1(C)CC(=O)C2(Cc3ccc(Cl)cc3N3CCC(c4ccccc4)CC32)C(=O)C1` (stereo not drawn), the “% Inhibition” value was 1% and the Z score was -0.14. `Cc1ccc(-c2nc(CN3CCCC3)n(CCO)n2)o1` was tested, and the “% Inhibition” value was -14% and the Z score was 1.55. In the case of `COCC(=O)N1CCc2cc3ccc2[C@@H]1c1cccc(c1)OCCCNC(=O)c1cc(ccc1O)O3`, the “% Inhibition” value is reported as -2% and the Z score is reported as 0.47. In the case of `Cc1ccc(NC2CCN(CCN3CCOCC3)CC2)cc1C`, the “% Inhibition” value is reported as -9% and the Z score is reported as 0.78. For `CC(C)c1noc(OCc2ccnc(N(C)C)c2)n1`, the “% Inhibition” value was 0% and the Z score was -0.01. In the case of `O=C(CN1CCCCC1)Nc1nnc(C2CC2)s1`, the “% Inhibition” value is reported as -12% and the Z score is reported as 2.01. In the case of `CCN1CCN(S(=O)(=O)c2cc3c(cc2Cl)N(Cc2noc(C)n2)C(=O)CO3)CC1`, the “% Inhibition” value is reported as 2% and the Z score is reported as -0.23. With `Cc1c(CN(C)Cc2nccn2C2CC2)[nH]c2ccccc12` the “% Inhibition” value was -10% and the Z score was 1.97. With `CN(Cc1ccccc1)c1nc(-c2ccccc2)ncc1C(=O)NC1CC1` the “% Inhibition” value was -6% and the Z score was 0.85. In the case of `Cc1nc[nH]c1CN1C[C@H]2CC[C@@H](C1)N(Cc1ccc3nsnc3c1)C2`, the “% Inhibition” value is reported as -7% and the Z score is reported as 1.39. With `CCc1nc(N2CCCN(C(=O)c3ccc(C)cc3)CC2)c2c(C)nn(-c3ccccc3C)c2n1` the “% Inhibition” value was 10% and the Z score was -1.22. `O=C(CCc1ccccc1Cl)N[C@H]1CC12CCOCC2` was tested, and the “% Inhibition” value was -5% and the Z score was 0.73. For `Cn1cc([C@@H]2CCCN2Cc2nnnn2C2CC2)cn1`, the “% Inhibition” value was 8% and the Z score was -1.1. With `CN1CCN(C(=O)[C@@H]2CCN(c3ccccc3)C2=O)CC1=O` the “% Inhibition” value was -7% and the Z score was 1.33. In the case of `CCc1cc(CNc2nncc(-c3ccc(C4CCCCC4)cc3)n2)on1`, the “% Inhibition” value is reported as 3% and the Z score is reported as -0.37. With `CCOc1cc(CN(C)Cc2[nH]nc3c2CCC3)cc(Cl)c1OCC` the “% Inhibition” value was -1% and the Z score was 0.26. `CCC(C)C(C)NC(=O)CCc1nc2c([nH]1)c(=O)[nH]c(=O)n2C` (stereo not drawn) was tested, and the “% Inhibition” value was -11% and the Z score was 1.22. For `CCOC(=O)N1CCN(C(=O)[C@H](C)NC(=O)c2cc3ccccc3o2)CC1`, the “% Inhibition” value was -5% and the Z score was 0.58. For `CC(C)N1CCN(C(=O)c2cccc3cnccc23)CC1`, the “% Inhibition” value was -6% and the Z score was 0.9. `O=C(CN1CN(c2ccccc2)C2(CCN(C(=O)c3cccc4ccccc34)CC2)C1=O)NCc1ccco1` was tested, and the “% Inhibition” value was -16% and the Z score was 2.56. With `Cc1nnc([C@H](C)N2CCc3c(Br)ccc(F)c3C2)o1` the “% Inhibition” value was 1% and the Z score was -0.14. In the case of `C#CCN(CC=C)C(=O)c1ccc([C@H](C)N2CCCCC2)o1`, the “% Inhibition” value is reported as -10% and the Z score is reported as 1.92. In the case of `COc1ccc(NC(=O)[C@H](C)n2nc3c(cc2=O)CCC3)c(C)c1`, the “% Inhibition” value is reported as 7% and the Z score is reported as -0.89. For `COc1cc(C(=O)NC[C@@H](c2ccc3c(c2)OCO3)N2CCN(C)CC2)cc(OC)c1OC`, the “% Inhibition” value was -12% and the Z score was 2.21. With `Cc1cc(NC(=O)N[C@@]2(C)CCOC2)n(Cc2ccccn2)n1` the “% Inhibition” value was -15% and the Z score was 1.3. With `CC(C)c1nc(C2CCN(C(=O)[C@@H]3COCCN3CC(F)F)CC2)no1` the “% Inhibition” value was 4% and the Z score was -0.75. `CCn1ccnc1CNC(=O)NCC1CCc2ccccc2CC1` was tested, and the “% Inhibition” value was -7% and the Z score was 1.12. For `CCN1CCN(C(=O)Nc2ccc(C3CCC3)cn2)CC1=O`, the “% Inhibition” value was 5% and the Z score was -0.63. With `CCC[C@H](C)c1cn(CCc2cc(O)nc(C)n2)nn1` the “% Inhibition” value was -12% and the Z score was 1.92. `Cn1cc(C(=O)O)c(C(=O)Nc2ccc(Nc3ccccc3)cc2)n1` was tested, and the “% Inhibition” value was -1% and the Z score was 0.1. In the case of `Cc1ccoc1C(=O)N(C)Cc1nnc[nH]1`, the “% Inhibition” value is reported as -1% and the Z score is reported as 0.11. In the case of `O=C(COc1ccc(Cl)cc1)Nc1nnc(-c2ccc3c(c2)OCO3)o1`, the “% Inhibition” value is reported as -14% and the Z score is reported as 2.58. For `Cc1ccccc1[C@H]1C[C@H](NC(=O)Nc2nnn(C(C)C)n2)C1`, the “% Inhibition” value was 4% and the Z score was -0.7. For `CCN(CC)CCn1c2ccccc2n2cc(-c3ccc(OC)c(OC)c3)nc12`, the “% Inhibition” value was 0% and the Z score was -0.04. For `O=C(c1ccc2c(=O)n3c(nc2c1)CCCCCC3)N1CCC[C@H]1c1ccc2c(c1)OCCO2`, the “% Inhibition” value was -8% and the Z score was 1.52. `COC1C(C)C(NC(C)c2ccc(OCCN(C)C)cc2)C1(C)C` (stereo not drawn) was tested, and the “% Inhibition” value was -9% and the Z score was 1.26. With `COCc1ccccc1Nc1ccccc1-c1noc(-c2ncccc2F)n1` the “% Inhibition” value was -12% and the Z score was 1.29. For `CCCCOCC(=O)N1C[C@@H]2CC[C@H]1CN(Cc1c(C)noc1C)C2`, the “% Inhibition” value was -4% and the Z score was 0.48. `O=C(Nc1snnc1-c1ccccc1)N1CCS(=O)(=O)CC1` was tested, and the “% Inhibition” value was -2% and the Z score was 0.45. With `N[C@H]1CN(C(=O)Cc2ccc3cccnc3c2)CC12CCC2` the “% Inhibition” value was -11% and the Z score was 2.1. In the case of `CCc1ccc(C(=O)NCCCC2CCCC2O)cc1S(=O)(=O)N1CCOCC1` (stereo not drawn), the “% Inhibition” value is reported as 47% and the Z score is reported as -7.15. With `O=C1C2C(c3ccccc3)C=CC(c3ccccc3)C2C(=O)N1C1CCCCC1` (stereo not drawn) the “% Inhibition” value was -2% and the Z score was 0.3. For `CCCn1nc(C(=O)O)c2c1CC[C@H](N1CCC(OC)CC1)C2`, the “% Inhibition” value was -9% and the Z score was 1.05. In the case of `C=C(C)[C@H]1OCC[C@H]1C(=O)N1CC[S+]([O-])CC(C)C1` (stereo partly drawn), the “% Inhibition” value is reported as -7% and the Z score is reported as 0.7. With `Cc1cnn(CCNCC(=O)N2CCC[C@H]2c2ccsc2)c1` the “% Inhibition” value was 7% and the Z score was -0.85. In the case of `Cc1cc(N2CCN(c3nc(C)cc(C#N)n3)CC2)nc(C(C)C)n1`, the “% Inhibition” value is reported as 6% and the Z score is reported as -0.85. For `Cn1cc2c(n1)c(=O)n(Cc1ccc(F)cc1)c1nn(Cc3ccc(Cl)cc3)c(=O)n21`, the “% Inhibition” value was -11% and the Z score was 1.45. With `CCCNC(=O)N(CCN1CCOCC1)CC(=O)N1N=C(c2ccc(F)cc2)C[C@H]1c1ccccc1F` the “% Inhibition” value was -10% and the Z score was 0.98. For `Cc1ccc(C2CCCCCN2C(=O)NC2CC(=O)N(C3CC3)C2)o1` (stereo not drawn), the “% Inhibition” value was -4% and the Z score was 0.52. For `Cc1ccc(NC(=O)N[C@@H](C)CC#N)s1`, the “% Inhibition” value was -16% and the Z score was 1.82. For `CO[C@H]1CN(C2CCN(Cc3ccc(F)cc3F)CC2)[C@H]1c1cccnc1`, the “% Inhibition” value was -11% and the Z score was 1.24. In the case of `Cc1ccc(C(=O)N[C@H]2CCCN(C(=O)C(C)C)C2)n1C(F)F`, the “% Inhibition” value is reported as -3% and the Z score is reported as 0.55. For `CC1C(=O)CCN(C)C1c1ccccc1` (stereo not drawn), the “% Inhibition” value was 2% and the Z score was -0.35. With `CC(C)COc1ccccc1[C@H]1CC(=O)Nc2c(S(=O)(=O)c3ccccc3)csc21` the “% Inhibition” value was -1% and the Z score was 0.15. For `O=C(CC1c2ccccc2CCc2ccccc21)NCCN1CCCCC1=O`, the “% Inhibition” value was 9% and the Z score was -1.36. In the case of `COC[C@H]1CCN(Cc2[nH]c3ccc(Cl)cc3c2C)C1`, the “% Inhibition” value is reported as 0% and the Z score is reported as -0.03. In the case of `CCNC(=O)Cn1ccc(-c2cccc(-c3nccc4ccccc34)c2)n1`, the “% Inhibition” value is reported as -12% and the Z score is reported as 1.42. With `c1ccc(C(c2ccccc2)c2n[nH]c3c2CN(CCCn2ccnc2)CC3)cc1` the “% Inhibition” value was 0% and the Z score was 0.02. In the case of `C[C@@H](c1ccc(Cl)cc1Cl)N(C)S(=O)(=O)CC1CCOCC1`, the “% Inhibition” value is reported as -12% and the Z score is reported as 1.18. For `O=C(NCC1(CO)CC2(CCC2)C1)[C@H]1CCc2nncn2C1`, the “% Inhibition” value was 31% and the Z score was -3.48. `COCCNC(=O)C[C@H](CCc1ccccc1)c1c[nH]c2ccc(Cl)cc12` was tested, and the “% Inhibition” value was -1% and the Z score was 0.14. `CCC1CN(C(=O)Nc2cnn(C)c2)CCC1c1ccccc1` (stereo not drawn) was tested, and the “% Inhibition” value was -10% and the Z score was 1.04. `CS(=O)(=O)N1CCCN(C(=O)NCCc2ccccc2)CCNC(=O)C[C@H]1c1ccccc1` was tested, and the “% Inhibition” value was -6% and the Z score was 1.14. `CN1CCN(C(=O)N2CC[C@H](Oc3cnc4ccccc4n3)C2)CC1` was tested, and the “% Inhibition” value was -1% and the Z score was 0.21. `CC(=O)NCC(=O)Nc1nccc2sccc12` was tested, and the “% Inhibition” value was 1% and the Z score was -0.08. `Cc1ccnc(NC(=O)[C@@H]2CCCc3ccccc32)n1` was tested, and the “% Inhibition” value was -9% and the Z score was 1.31. In the case of `CC1(C(=O)O)CCC(C(=O)Nc2ccc(Nc3ccccc3)cc2)C1(C)C` (stereo not drawn), the “% Inhibition” value is reported as -5% and the Z score is reported as 0.94. `COc1ccc(C2CC(=O)N(Cc3ccccc3)C(=O)C2)cc1OC` was tested, and the “% Inhibition” value was -1% and the Z score was 0.25.
